Consider 1 compound from US8568699B2, “Soft anticholinergic zwitterions” (priority 2005, dated 2013).

This experiment deals with carbachol induced bradycardia (mainly muscarinic M2 receptors). The experiment in a line: Carbachol induced bradycardia in anesthetized rats (tiotropium derivatives). It counts as in vivo, rat. The note with it: compared with atropine and ipratropium bromide. The text has this:
Intravenous administration of the cholinomimetic carbachol causes sinus bradycardia (increasing the PP cycle and RR cycle length of the ECG) in anesthetized rats. This effect, which is mediated mainly by muscarinic M2 receptors, can be prevented by prior administration of anticholinergic agent. […] Compound (aa) can be similarly evaluated.

Take `CCOC(=O)C[N+]1(C)[C@@H]2C[C@@H](OC(=O)C(O)(c3cccs3)c3cccs3)C[C@H]1[C@@H]1O[C@@H]12` (stereo partly drawn) [Compound (w), 6β,7β-epoxy-3β-hydroxy-8-ethoxycarbonylmethyl-8-methyl-1αH,5αH-tropanium bromide, di-2-thienylglycolate]: the Bradycardia protective effect entry was “less active than an equimolar dose of atropine, and was slightly less active than a 10-fold lower dose of ipratropium bromide”.
